# In PubChem BioAssay AID485344 (National Center for Advancing Translational Sciences (NCATS), 2010):
# About 6,900 (2%) of roughly 340,000 compounds were called active. No stated cut-off is given here; in the data, active means inhibition above about 30%; inactive means below that, where a call was filed. The list shows a part of the results, in another mix than the full data. The source gives no active or inactive call for entries shown without one.
# Molecular target: D(2) dopamine receptor (Homo sapiens) (UniProt P14416)
# Sequence of UniProt P14416 (P14416 whole entry, looked up): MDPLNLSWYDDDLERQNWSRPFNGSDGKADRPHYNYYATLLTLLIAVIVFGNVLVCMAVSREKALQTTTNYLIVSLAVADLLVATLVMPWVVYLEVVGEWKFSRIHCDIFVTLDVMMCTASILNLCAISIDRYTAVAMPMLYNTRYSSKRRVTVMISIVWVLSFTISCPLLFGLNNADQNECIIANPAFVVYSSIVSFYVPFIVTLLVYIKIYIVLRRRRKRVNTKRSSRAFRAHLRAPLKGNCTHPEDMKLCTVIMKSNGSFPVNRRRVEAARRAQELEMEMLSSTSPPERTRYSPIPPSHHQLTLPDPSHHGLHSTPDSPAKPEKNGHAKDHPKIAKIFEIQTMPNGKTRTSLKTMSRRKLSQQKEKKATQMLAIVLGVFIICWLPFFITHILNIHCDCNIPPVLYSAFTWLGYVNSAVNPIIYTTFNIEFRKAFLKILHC
# Experiment: HTS Assay for Allosteric Antagonists of the Human D2 Dopamine Receptor: Primary Screen for Antagonists; further: 0% is about no effect
# Details: HEK293 TREx D2 cells, calcium flux, dopamine EC80; at 10 µM; stronger effect = higher value
# Method in brief: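 Tetracycline-induced HEK293 TREx cells expressing D2 receptor forced-coupled to calcium signalling, loaded with no-wash calcium dye. Compounds added and calcium flux read 180 s, then dopamine added at EC80 and read a further 180 s.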
row,SMILES,inhibition
1,Cc1cccc2sc(N(CCN(C)C)C(=O)/C=C/c3cccs3)nc12,active: 31.6%
2,CC(=O)Nc1nonc1-c1nnc(SCc2ccccc2)n1C,-5.14%
3,COc1ccc(-n2nc(C(=O)Nc3cc(C)ccn3)c3c4ccccc4n(C)c3c2=O)cc1Cl,26.5%
4,CCc1ccc(NC(=O)Cn2c(=O)c3cc(Cl)ccc3n3nncc23)cc1,3.3%
5,CCOc1ccc(-c2cc(C(=O)NCCc3ccc(OC)c(OC)c3)[nH]n2)cc1,3.03%
6,O=c1c2oc3ccccc3c2n(Cc2cccc(F)c2)c(=O)n1Cc1ccc2c(c1)OCO2,2.21%
7,CCC1(c2ccc(F)cc2)NC(=O)N(CC(=O)c2ccc[nH]2)C1=O (stereo unspecified),active: 30.3%
8,C=Cc1ccc(Cn2c(SCC(=O)N3CCN(c4ccc(F)cc4)CC3)nc3ccccc32)cc1,-0.68%
9,COC(=O)c1cccc(CN2C(=O)SC(Nc3ccc(C)cc3)C2=O)c1 (stereo unspecified),-4.89%
10,O=C(NCc1ccc(F)cc1)c1ccc2oc(=O)n(Cc3ccccc3)c2c1,-11.7%
11,COc1ccccc1NC(=O)C(=O)NCC(c1cccnc1)N1CCc2ccccc2C1 (stereo unspecified),8.86%
12,COc1cccc(CNC(=O)Cn2c(=O)oc3cc(S(=O)(=O)N4CCCCCC4)ccc32)c1,-3.19%
13,O=C(CN1CCN(C/C=C/c2ccccc2)CC1)NC(=O)NC1CCCCC1,active: 70.6%
14,COC(=O)c1ccc(NC(=O)CCc2c(C)nn(-c3ccc(N4CCCCC4)nn3)c2C)cc1,-4.38%
15,O=C(NCc1ccc2c(c1)CCN2C(=O)c1ccncc1)c1ccccc1F,-27.3%
16,COc1cccc(OCCn2c(-c3ccc(Br)cc3)nc3ccccc3c2=O)c1,17.4%
17,COC(=O)c1ccccc1NC(=O)CCS(=O)(=O)c1nc(-c2ccc3c(c2)OCO3)cc(C(F)(F)F)n1,-14.5%
18,CCOCCCn1c(=N)c(S(=O)(=O)c2ccc(Cl)cc2)cc2c(=O)n3cccc(C)c3nc21,0.789%
19,COc1ccccc1CNc1ncnc2c1nnn2C,18.1%
20,COC(=O)c1c(-c2cccs2)csc1NC(=O)c1ccc(C(C)C)cc1,7.38%
21,O=C(COc1ccccc1)OCc1cc(=O)n2nc(-c3cccs3)sc2n1,-1.57%

row,SMILES,inhibition
1,Cc1c(Cl)cccc1NC(=O)c1cc2nc(-c3ccc4c(c3)OCO4)cc(C(F)(F)F)n2n1,-0.274%
2,Cc1ccccc1NC(=O)c1ccc(N(Cc2ccccc2)S(C)(=O)=O)cc1,-10.6%
3,COc1ccc(CNC(=O)c2cnc3ccc(C)cn3c2=O)cc1,13.3%
4,CCc1nn(CC(=O)NC(C)CC)c(=O)c2cc3occc3n12 (stereo unspecified),5%
5,CC(C)(C)OC(=O)N1CCC(c2c(C(=O)Nc3ccc4c(c3)OCO4)cnn2-c2ccccc2)CC1,-13.7%
6,O=C(Nc1cccc(-c2nc3ccccc3o2)c1)c1cccc2c(Cl)cccc12,-11.4%
7,Cc1ccc(NC(=O)CCS(=O)(=O)c2ccc3c(c2)oc(=O)n3C)c(Br)c1,5.66%
8,Cc1ccc2nc(COc3cccc(NC(=O)COc4ccc(F)cc4)c3)cc(=O)n2c1,-9.53%
9,Cc1c(Cl)cccc1Nc1nn2c(=O)c3ccc(C(=O)N(C)Cc4ccccc4)cc3nc2s1,-2.2%
10,CCOc1cc(S(=O)(=O)NCCc2c(C)[nH]c3ccc(C)cc23)ccc1Br,-5.83%
11,Cc1cc(C)cc(-n2c(SCC(=O)NC3CCCCC3)nc3c([nH]c4ccccc43)c2=O)c1,-3.93%
12,CC(=O)c1cccc(NS(=O)(=O)c2cccc(S(=O)(=O)c3ccc(Br)cc3)c2)c1,-15%
13,COc1ccc(N2CCN(C(=O)CSCc3ccc(C)cc3)CC2)cc1,-10.3%
14,O=c1[nH]c(SCc2c(F)cccc2Cl)nc2c1CCCC2,0.728%
15,CCN(C(=O)c1cc2c(s1)-c1ccccc1OC2)c1cccc(C(F)(F)F)c1,1.09%
16,COc1ccc(NC(=O)Nc2nnc(N(CC(C)C)CC(C)C)s2)c(OC)c1,-8.38%
17,COc1ccc(NC(=O)c2cc(C3CC3)nc3c2c(C)nn3-c2ccccc2)cc1OC,28%
18,Cc1ccc(NC(=O)c2c(NC(=O)C(F)(F)F)sc3c2CCCCC3)cc1,-2.52%
19,O=C1N[C@@H](Cc2cnc[nH]2)C(=O)N2CCC[C@@H]12,active: 45.2%
20,Cc1ccc(CNC(=O)Cn2cccc2C(=O)c2ccccc2C)cc1,0.531%
21,COc1ccc(Cl)cc1NC(=O)CCn1c(=O)oc2ccccc21,24.7%

row,SMILES,inhibition
1,Cc1ccccc1NC(=O)CSc1ccc(-c2cccs2)nn1,-10.1%
2,O=c1[nH]c(SCc2ccc([N+](=O)[O-])cc2)nc2c1CCCC2,20.9%
3,Cc1ccc(NC(=O)c2ccc(OCc3c(C)noc3C)cc2)nc1,active: 34.1%
4,CCc1ccc(NC(=O)C(=O)NCCc2sc3nc(-c4ccc(OC)cc4)nn3c2C)cc1,-8.88%
5,Cc1ccc(CNc2nc3ccc(C)cc3n3nnnc23)cc1,2.56%
6,Cc1ccc(NS(=O)(=O)c2ccc(-c3cc(C)no3)cc2)c(Br)c1,-11%
7,Cc1ccc(CCNC(=O)c2c(C)nn(-c3ccc(F)cc3)c2-n2cccc2)cc1,-5.7%
8,CC1=C(C(=O)Nc2ccccc2)C(c2ccc(O)cc2)n2nc(SCc3ccccc3)nc2N1 (stereo unspecified),22.5%
9,CCOc1ccccc1NC(=O)N1CCC2(CC1)Oc1ccccc1C(=O)N2Cc1ccccc1F,-0.361%
10,O=C(Cn1ncc2c3ccccc3n(Cc3ccc(F)cc3)c2c1=O)NCCCN1CCCCC1,-2.85%
11,N#Cc1c[nH]n2c(NC3CCCC3)c(-c3ccc(Cl)cc3)nc12,5.01%
12,CC(C)N(Cc1ccccc1)C(=O)CN1C(=O)CSc2ccc(S(=O)(=O)N3CCCC3)cc21,-2.71%
13,Cc1c(C(=O)N2CCC(C)CC2)c(S(=O)(=O)Nc2ccc(OC(F)(F)F)cc2)c(C)n1C,-9.03%
14,Cc1ccc(NC(=O)CC2S/C(=N/N=C/c3ccco3)NC2=O)cc1Cl (stereo unspecified),active: 32.7%
15,CCn1cc(C(=O)N2CCN(c3ccc(OC)cc3)CC2)c(=O)c2cc(S(=O)(=O)N3CCOCC3)ccc21,19.5%
16,COc1ccc2[nH]cc(CCN=C(NC(=O)c3ccccc3C)Nc3nc(C)cc(C)n3)c2c1,5.51%
17,COc1ccc(OCC(=O)Nc2ccc(-c3nc4cc(C)c(C)cc4o3)cc2)cc1,4.2%
18,COc1cc(OC)c(N(C)C(=O)c2sc3nc4n(c(=O)c3c2C)CCCCC4)cc1Cl,18.7%
19,Cc1cc(Nc2cc(F)ccc2C)nc(-n2nc(C)cc2C)n1,-0.12%
